According to article PMC8785984:
Results are given in words; binding and its absence hold for the method and conditions named. In cells and extracts the contact can be indirect. Some binding calls cover weakened binding; strength is not graded here.

Chains of the proteins cited; added tags and fusions are not shown.
UniProt Q96DH6: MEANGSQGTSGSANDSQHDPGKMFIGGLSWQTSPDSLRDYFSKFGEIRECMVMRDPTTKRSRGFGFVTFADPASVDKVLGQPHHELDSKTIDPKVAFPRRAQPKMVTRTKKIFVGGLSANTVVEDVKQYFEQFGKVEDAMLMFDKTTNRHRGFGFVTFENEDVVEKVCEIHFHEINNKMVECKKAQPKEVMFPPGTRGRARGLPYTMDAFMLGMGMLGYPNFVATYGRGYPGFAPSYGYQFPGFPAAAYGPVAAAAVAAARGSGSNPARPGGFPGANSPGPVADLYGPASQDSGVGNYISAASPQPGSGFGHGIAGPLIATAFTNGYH
UniProt Q93034: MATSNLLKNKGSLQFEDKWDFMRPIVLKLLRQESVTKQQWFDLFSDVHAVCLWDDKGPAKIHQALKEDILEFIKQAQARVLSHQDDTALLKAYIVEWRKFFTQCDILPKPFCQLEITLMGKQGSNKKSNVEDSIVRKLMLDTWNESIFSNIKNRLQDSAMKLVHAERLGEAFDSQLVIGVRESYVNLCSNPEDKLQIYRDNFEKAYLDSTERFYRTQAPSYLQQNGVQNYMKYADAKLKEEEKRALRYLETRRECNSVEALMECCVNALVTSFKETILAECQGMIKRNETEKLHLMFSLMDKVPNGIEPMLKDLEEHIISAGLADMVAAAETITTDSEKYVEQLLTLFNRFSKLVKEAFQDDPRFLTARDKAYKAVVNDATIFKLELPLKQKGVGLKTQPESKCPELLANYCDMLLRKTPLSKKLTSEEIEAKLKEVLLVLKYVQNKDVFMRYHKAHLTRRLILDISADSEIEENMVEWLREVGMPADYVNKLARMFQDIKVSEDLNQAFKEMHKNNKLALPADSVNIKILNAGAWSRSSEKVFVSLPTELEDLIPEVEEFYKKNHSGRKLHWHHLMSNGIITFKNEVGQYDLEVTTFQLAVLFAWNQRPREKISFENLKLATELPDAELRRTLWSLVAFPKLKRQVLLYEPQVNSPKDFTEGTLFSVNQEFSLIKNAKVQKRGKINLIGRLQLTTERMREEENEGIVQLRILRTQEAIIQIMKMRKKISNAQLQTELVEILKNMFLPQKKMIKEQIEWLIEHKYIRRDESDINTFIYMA
UniProt Q13616: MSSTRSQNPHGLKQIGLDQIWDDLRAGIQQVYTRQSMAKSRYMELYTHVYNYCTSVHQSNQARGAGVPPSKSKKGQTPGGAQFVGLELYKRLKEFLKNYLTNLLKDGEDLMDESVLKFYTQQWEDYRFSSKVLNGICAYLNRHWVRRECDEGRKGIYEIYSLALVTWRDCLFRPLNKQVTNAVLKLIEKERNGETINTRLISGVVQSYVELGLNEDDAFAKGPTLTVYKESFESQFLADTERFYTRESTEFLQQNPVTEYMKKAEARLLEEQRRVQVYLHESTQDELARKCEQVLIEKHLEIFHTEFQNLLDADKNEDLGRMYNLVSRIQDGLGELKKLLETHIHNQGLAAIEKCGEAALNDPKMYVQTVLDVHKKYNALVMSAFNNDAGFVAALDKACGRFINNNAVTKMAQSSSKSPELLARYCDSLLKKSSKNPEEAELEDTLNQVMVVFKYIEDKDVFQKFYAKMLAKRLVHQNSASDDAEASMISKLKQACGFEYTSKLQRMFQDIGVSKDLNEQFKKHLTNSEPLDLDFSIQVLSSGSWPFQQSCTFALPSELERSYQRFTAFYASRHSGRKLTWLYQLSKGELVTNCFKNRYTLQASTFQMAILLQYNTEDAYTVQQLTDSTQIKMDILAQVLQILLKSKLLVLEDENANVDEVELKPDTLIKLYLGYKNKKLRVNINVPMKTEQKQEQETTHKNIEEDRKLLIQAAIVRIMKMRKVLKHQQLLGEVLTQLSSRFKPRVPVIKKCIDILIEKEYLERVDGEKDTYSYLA
UniProt Q13620: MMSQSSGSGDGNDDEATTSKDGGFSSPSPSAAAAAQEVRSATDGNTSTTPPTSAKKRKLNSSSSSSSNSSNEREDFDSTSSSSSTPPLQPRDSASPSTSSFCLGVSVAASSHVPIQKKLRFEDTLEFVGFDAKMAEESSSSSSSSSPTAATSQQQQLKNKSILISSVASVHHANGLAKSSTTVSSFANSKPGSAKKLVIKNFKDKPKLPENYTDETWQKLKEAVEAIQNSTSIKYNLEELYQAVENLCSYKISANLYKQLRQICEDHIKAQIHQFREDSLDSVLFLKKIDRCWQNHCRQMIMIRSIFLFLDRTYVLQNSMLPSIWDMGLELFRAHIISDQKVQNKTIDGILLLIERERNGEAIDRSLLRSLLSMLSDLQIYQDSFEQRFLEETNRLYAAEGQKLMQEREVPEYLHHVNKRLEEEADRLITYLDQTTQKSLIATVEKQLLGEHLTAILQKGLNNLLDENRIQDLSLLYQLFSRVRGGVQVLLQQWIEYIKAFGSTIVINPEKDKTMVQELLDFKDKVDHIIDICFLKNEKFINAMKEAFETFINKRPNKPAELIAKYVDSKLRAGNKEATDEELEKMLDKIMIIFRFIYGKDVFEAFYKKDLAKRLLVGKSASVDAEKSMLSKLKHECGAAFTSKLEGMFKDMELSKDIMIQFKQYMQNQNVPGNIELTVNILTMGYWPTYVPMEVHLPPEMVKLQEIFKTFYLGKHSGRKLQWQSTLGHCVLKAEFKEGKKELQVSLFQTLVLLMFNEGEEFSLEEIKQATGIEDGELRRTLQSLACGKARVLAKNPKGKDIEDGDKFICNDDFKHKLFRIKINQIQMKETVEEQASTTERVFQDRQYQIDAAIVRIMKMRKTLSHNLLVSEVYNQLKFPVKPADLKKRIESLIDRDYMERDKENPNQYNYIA
UniProt Q969H0: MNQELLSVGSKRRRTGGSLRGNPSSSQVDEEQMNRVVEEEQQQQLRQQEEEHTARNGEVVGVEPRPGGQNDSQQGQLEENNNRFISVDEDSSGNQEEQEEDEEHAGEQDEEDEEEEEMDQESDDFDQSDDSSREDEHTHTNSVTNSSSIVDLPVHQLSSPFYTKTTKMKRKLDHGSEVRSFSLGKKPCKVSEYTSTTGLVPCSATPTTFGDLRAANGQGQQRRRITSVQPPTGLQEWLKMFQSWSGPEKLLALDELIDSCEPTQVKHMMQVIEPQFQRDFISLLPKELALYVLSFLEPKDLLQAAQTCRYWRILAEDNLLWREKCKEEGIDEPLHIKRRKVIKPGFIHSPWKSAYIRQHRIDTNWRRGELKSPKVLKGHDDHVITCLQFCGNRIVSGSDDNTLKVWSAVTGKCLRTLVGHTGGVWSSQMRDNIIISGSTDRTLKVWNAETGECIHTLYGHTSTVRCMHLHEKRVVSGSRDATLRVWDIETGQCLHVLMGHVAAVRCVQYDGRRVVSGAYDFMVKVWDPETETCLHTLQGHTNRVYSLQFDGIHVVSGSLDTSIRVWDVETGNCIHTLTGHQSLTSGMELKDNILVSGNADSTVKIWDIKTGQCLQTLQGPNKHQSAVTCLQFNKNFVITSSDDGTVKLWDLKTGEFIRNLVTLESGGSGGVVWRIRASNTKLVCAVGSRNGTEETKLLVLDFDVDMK

Experiments:
[1] = biological target: Flag-MSI2 (human) (UniProt Q96DH6); test: co-IP; SGC7901 cells transfected with Flag-MSI2; IP with anti-Flag antibody, western blot for endogenous partners; MG-132 (20 μM) for 6 h before harvesting; RIPA lysate
[2] = biological target: Flag-MSI2 (human) (UniProt Q96DH6); test: co-IP; 293T cells transfected with Flag-MSI2 constructs and HA-β-Trcp or HA-FBXW7; IP with anti-Flag antibody, western blot; MG-132 (20 μM) for 6 h before harvesting; RIPA lysate
[3] = biological target: Flag-Cullin 5 (UniProt Q93034); test: co-IP; 293T cells co-transfected with Flag-Cullin family proteins (1, 3, 4B, 5) and Myc-MSI2; IP with anti-Flag or anti-Myc antibody, western blot; MG-132 (20 μM) for 6 h before harvesting; RIPA lysate
[4] = biological target: Flag-Cullin1 (UniProt Q13616); test: as above
[5] = biological target: Flag-Cullin 4B (UniProt Q13620); test: as above

With “FBXW7 (endogenous, SGC7901) (from UniProt Q969H0 1-707)” the binding [1] was “no binding”.

HA-FBXW7 (from UniProt Q969H0 1-707) was tested, and the binding [2] was “no binding”.

Myc-MSI2 (from UniProt Q96DH6 1-328) was tested, and the binding [3] was “no binding”, the binding [4] was “binds” and the binding [5] was “no binding”.
